The subject of one test is R8 HIV reporter particle. The settings on record: read-out: IC50 (concentration of inhibitor needed to inhibit 50% of the signal); SupT1/CCR5 cells, blue fluorescence, 3 parameter logistic fit.
Test [1] has as its system R8.BaL HIV reporter particle. The following applies: read-out: IC50 (concentration of inhibitor needed to inhibit 50% of the signal); SupT1/CCR5 cells, blue fluorescence, 3 parameter logistic fit.

Take enfuvirtide: the values for the IC50 (with R8 HIV reporter particle; in test [1]) were 91 nM and 26 nM, respectively.

(Values after patent US20040091853A1 (priority 2003, published 2004).)
